Substitutions are numbered along the chain they refer to; changes in the protein carry UniProt numbers. The list shows a part of the results.
B1: UGCGCGC (DNA:RNA)
RNA: GGGAGACCGGAAUUCAGAUUGUCCUGCGCGCUUAAAUCCCGUCGUAGCCACCA
DNA 1: CAATCTGAATTCCGGTCTCCC
DNA 2: TGGTGGCTACGACGGGATT
B2: AAGGCCU (DNA:RNA)
RNA: B1 RNA with U25A, G26A, C27G, G30C, C31U
DNA 1: CAATCTGAATTCCGGTCTCCC
DNA 2: TGGTGGCTACGACGGGATT
B3: CCAUGGA (DNA:RNA)
RNA: B1 RNA with U25C, G26C, C27A, G28U, C29G, C31A
DNA 1: CAATCTGAATTCCGGTCTCCC
DNA 2: TGGTGGCTACGACGGGATT
B4: UCCUUAG (DNA:RNA)
RNA: B1 RNA with G26C, G28U, C29U, G30A, C31G
DNA 1: CAATCTGAATTCCGGTCTCCC
DNA 2: TGGTGGCTACGACGGGATT
B5: UCACAGU (DNA:RNA)
RNA: B1 RNA with G26C, C27A, G28C, C29A, C31U
DNA 1: CAATCTGAATTCCGGTCTCCC
DNA 2: TGGTGGCTACGACGGGATT
B6: AUUACGU (DNA:RNA)
RNA: B1 RNA with U25A, G26U, C27U, G28A, C31U
DNA 1: CAATCTGAATTCCGGTCTCCC
DNA 2: TGGTGGCTACGACGGGATT
B7: UGAUAUA (DNA:RNA)
RNA: B1 RNA with C27A, G28U, C29A, G30U, C31A
DNA 1: CAATCTGAATTCCGGTCTCCC
DNA 2: TGGTGGCTACGACGGGATT
B8: CUUACAC (DNA:RNA)
RNA: B1 RNA with U25C, G26U, C27U, G28A, G30A
DNA 1: CAATCTGAATTCCGGTCTCCC
DNA 2: TGGTGGCTACGACGGGATT
B9: CGGGGAC (DNA:RNA)
RNA: B1 RNA with U25C, C27G, C29G, G30A
DNA 1: CAATCTGAATTCCGGTCTCCC
DNA 2: TGGTGGCTACGACGGGATT
B10: GCCAUGC (DNA:RNA)
RNA: B1 RNA with U25G, G26C, G28A, C29U
DNA 1: CAATCTGAATTCCGGTCTCCC
DNA 2: TGGTGGCTACGACGGGATT
B11: UUUUAAU (DNA:RNA)
RNA: B1 RNA with G26U, C27U, G28U, C29A, G30A, C31U
DNA 1: CAATCTGAATTCCGGTCTCCC
DNA 2: TGGTGGCTACGACGGGATT
B12: AGCAAGG (DNA:RNA)
RNA: B1 RNA with U25A, G28A, C29A, C31G
DNA 1: CAATCTGAATTCCGGTCTCCC
DNA 2: TGGTGGCTACGACGGGATT
B13: AACGGAC (DNA:RNA)
RNA: B1 RNA with U25A, G26A, C29G, G30A
DNA 1: CAATCTGAATTCCGGTCTCCC
DNA 2: TGGTGGCTACGACGGGATT
B14: CCGUGCA (DNA:RNA)
RNA: GGGAGACCGGAAUUCAGAUUGUCCCCGUGCAUUAAAUCCCGUCGUAGCCACCA
DNA 1: CAATCTGAATTCCGGTCTCCC
DNA 2: TGGTGGCTACGACGGGATT
B15: AACCCCU (DNA:RNA)
RNA: B1 RNA with U25A, G26A, G28C, G30C, C31U
DNA 1: CAATCTGAATTCCGGTCTCCC
DNA 2: TGGTGGCTACGACGGGATT
B16: GACGGGA (DNA:RNA)
RNA: B1 RNA with U25G, G26A, C29G, C31A
DNA 1: CAATCTGAATTCCGGTCTCCC
DNA 2: TGGTGGCTACGACGGGATT
B17: UGUCGGC (DNA:RNA)
RNA: B1 RNA with C27U, G28C, C29G
DNA 1: CAATCTGAATTCCGGTCTCCC
DNA 2: TGGTGGCTACGACGGGATT
B18: GGUCGUC (DNA:RNA)
RNA: B1 RNA with U25G, C27U, G28C, C29G, G30U
DNA 1: CAATCTGAATTCCGGTCTCCC
DNA 2: TGGTGGCTACGACGGGATT
B19: CGGUGAC (DNA:RNA)
RNA: B14 RNA with C26G, C30A, A31C
DNA 1: CAATCTGAATTCCGGTCTCCC
DNA 2: TGGTGGCTACGACGGGATT
B20: UUUUUUC (DNA:RNA)
RNA: B1 RNA with G26U, C27U, G28U, C29U, G30U
DNA 1: CAATCTGAATTCCGGTCTCCC
DNA 2: TGGTGGCTACGACGGGATT
B21: ACAUUCG (DNA:RNA)
RNA: B14 RNA with C25A, G27A, G29U, A31G
DNA 1: CAATCTGAATTCCGGTCTCCC
DNA 2: TGGTGGCTACGACGGGATT
B22: CAUCCGA (DNA:RNA)
RNA: B14 RNA with C26A, G27U, U28C, G29C, C30G
DNA 1: CAATCTGAATTCCGGTCTCCC
DNA 2: TGGTGGCTACGACGGGATT
B23: AGAGGUU (DNA:RNA)
RNA: B1 RNA with U25A, C27A, C29G, G30U, C31U
DNA 1: CAATCTGAATTCCGGTCTCCC
DNA 2: TGGTGGCTACGACGGGATT
B24: GGUUCGA (DNA:RNA)
RNA: B1 RNA with U25G, C27U, G28U, C31A
DNA 1: CAATCTGAATTCCGGTCTCCC
DNA 2: TGGTGGCTACGACGGGATT
B25: CAUGGUG (DNA:RNA)
RNA: B14 RNA with C26A, G27U, U28G, C30U, A31G
DNA 1: CAATCTGAATTCCGGTCTCCC
DNA 2: TGGTGGCTACGACGGGATT
B26: CAGUGGA (DNA:RNA)
RNA: B14 RNA with C26A, C30G
DNA 1: CAATCTGAATTCCGGTCTCCC
DNA 2: TGGTGGCTACGACGGGATT
B27: UACUUAU (DNA:RNA)
RNA: B1 RNA with G26A, G28U, C29U, G30A, C31U
DNA 1: CAATCTGAATTCCGGTCTCCC
DNA 2: TGGTGGCTACGACGGGATT
B28: UGGAACU (DNA:RNA)
RNA: B14 RNA with C25U, C26G, U28A, G29A, A31U
DNA 1: CAATCTGAATTCCGGTCTCCC
DNA 2: TGGTGGCTACGACGGGATT
B29: ACAAUCA (DNA:RNA)
RNA: B14 RNA with C25A, G27A, U28A, G29U
DNA 1: CAATCTGAATTCCGGTCTCCC
DNA 2: TGGTGGCTACGACGGGATT
B30: CUUCUGG (DNA:RNA)
RNA: B14 RNA with C26U, G27U, U28C, G29U, C30G, A31G
DNA 1: CAATCTGAATTCCGGTCTCCC
DNA 2: TGGTGGCTACGACGGGATT
B31: UUAGUGA (DNA:RNA)
RNA: B1 RNA with G26U, C27A, C29U, C31A
DNA 1: CAATCTGAATTCCGGTCTCCC
DNA 2: TGGTGGCTACGACGGGATT

Each binder was assayed against T1, RBFOX1 RRM RbFoxmut (Fox-RRM*) (Homo sapiens, UniProt Q9NWB1 109-208, R118D;E147R;N151S;E152T) (assay: EMSA; HiTS-Eq, 1 nM pool, 10 min; buffer printed only for the single-RNA assays: 10 mM Tris pH 7.5, 150 mM NaCl, 3.4 mM EDTA, 0.001% NP-40, 30 C). Conditions: tags: His6 N-terminal (pET28a); label: 5' 32P.
T1 sequence: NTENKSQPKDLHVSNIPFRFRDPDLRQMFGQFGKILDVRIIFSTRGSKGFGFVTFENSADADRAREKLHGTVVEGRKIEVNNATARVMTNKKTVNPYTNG
Outline: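 These values rest on relative association constants, computed from read-count changes of each RNA species versus the control reaction and normalised to the cognate motif. Reads came from free RNA recovered by 8% native PAGE after purified RbFox RRM (wild type or mutant) at increasing concentrations was equilibrated for 10 min in 50 µL with 1 nM of a 5′-radiolabelled pool with 7 randomized nucleotides and DNA-annealed flanks.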

Binder | binding signal
B1 | 0.108 KA relative to UGCAUGU
B2 | 0.0632 KA relative to UGCAUGU
B3 | 0.0873 KA relative to UGCAUGU
B4 | 0.102 KA relative to UGCAUGU
B5 | 0.061 KA relative to UGCAUGU
B6 | 0.127 KA relative to UGCAUGU
B7 | 0.0947 KA relative to UGCAUGU
B8 | 0.0928 KA relative to UGCAUGU
B9 | 0.0855 KA relative to UGCAUGU
B10 | 0.109 KA relative to UGCAUGU
B11 | 0.0771 KA relative to UGCAUGU
B12 | 0.0886 KA relative to UGCAUGU
B13 | 0.0772 KA relative to UGCAUGU
B14 | 0.215 KA relative to UGCAUGU
B15 | 0.0514 KA relative to UGCAUGU
B16 | 0.0119 KA relative to UGCAUGU

Binder | binding signal
B17 | 0.104 KA relative to UGCAUGU
B18 | 0.159 KA relative to UGCAUGU
B19 | 0.0871 KA relative to UGCAUGU
B20 | 0.0746 KA relative to UGCAUGU
B21 | 0.109 KA relative to UGCAUGU
B22 | 0.0593 KA relative to UGCAUGU
B23 | 0.0888 KA relative to UGCAUGU
B24 | 0.239 KA relative to UGCAUGU
B25 | 0.14 KA relative to UGCAUGU
B26 | 0.125 KA relative to UGCAUGU
B27 | 0.12 KA relative to UGCAUGU
B28 | 0.1 KA relative to UGCAUGU
B29 | 0.0799 KA relative to UGCAUGU
B30 | 0.079 KA relative to UGCAUGU
B31 | 0.0842 KA relative to UGCAUGU

Reference: publication PMC9911399, “Two distinct binding modes provide the RNA-binding protein RbFox with extraordinary sequence specificity”
